The target in this assay is Thermoascus aurantiacus GH61A polypeptide (Thermoascus aurantiacus, UniProt G3XAP7, N13Y). Type of assay: biochemical.
Where [1] appears, read: pterin in DMSO, GH61A 2 mg per g cellulose, cellulose 29.5 mg per ml, 3 days.
The mark [2] stands for this setting: pterin in DMSO, GH61A 2 mg per g cellulose, cellulose 29.5 mg per ml, 7 days.
[3] abbreviates: Example 6, 5 mM compound, GH61A 0.4 mg/g cellulose, FIG. 2 grey bars.
The mark [4] stands for this setting: Example 6, 5 mM compound, GH61A 0.4 mg/g cellulose, early and mid hydrolysis stages.

From patent publication US10087478B2, “Compositions comprising a polypeptide having cellulolytic enhancing activity and a nitrogen-containing compound and uses thereof” (priority 2010, dated 2018) come the findings set out here.

Read-outs that look alike come from different tables or passages of the source.

Take `Nc1ccccc1N` [1,2-benzenediamine]: for the setting “5 mM 1,2-benzenediamine, GH61A 0.4 mg/g cellulose, day 1”, the GH61 effect entry was “greater than 1”. The “nitrogen-containing compound effect(+GH61)” value (5 mM compound, GH61A 0.4 mg/g cellulose, 1, 5 and 8 days (FIG. 1A)) is given as “less than 1”.

Consider `CC1Nc2nc(N)[nH]c(=O)c2NC1C.Cl` (stereo not drawn) [6,7-dimethyl-5,6,7,8-tetrahydropterine hydrochloride], for which, under setting [1], the GH61 effect is recorded as 1.27±0.0160 and the “nitrogen-containing compound effect(+GH61)” value stood at 0.881±0.046. Further, under setting [2], the GH61 effect is on record as 1.15 and the “nitrogen-containing compound effect(+GH61)” value was 0.785±0.0127.

For `C[C@H](O)[C@H](O)[C@H]1CNc2nc(N)[nH]c(=O)c2N1.Cl.Cl` [(6R)-5,6,7,8-tetrahydrobiopterin dihydrochloride], under setting [1], the GH61 effect is given as 1.03±0.0414 and the “nitrogen-containing compound effect(+GH61)” value was 0.917±0.0564. Further, under setting [2], the GH61 effect was 1.07±0.0402 and the “nitrogen-containing compound effect(+GH61)” value is reported as 0.969±0.0189.

Turning to `CC1(C)CCCC(C)(C)N1[O]` [TEMPO, 2,2,6,6-tetramethyl-1-piperidinyloxy], the “nitrogen-containing compound effect(+GH61)” value under setting [3] is reported as “less than 1”. Besides, the GH61 effect entry (Example 6, 5 mM compound, GH61A 0.4 mg/g cellulose, increased as the hydrolysis progressed) is “greater than 1”.

Consider `CC(C)=NO` [acetone oxime], for which, under setting [3], the “nitrogen-containing compound effect(+GH61)” value is listed as “very slightly impacted”. For the same compound, the GH61 effect result under setting [4] is “greater than 1”.

For `ON=Cc1ccccn1` [pyridine-2-aldoxime], under setting [3], the “nitrogen-containing compound effect(+GH61)” value is “slightly decreased”. Moreover, the GH61 effect result (Example 6, 5 mM compound, GH61A 0.4 mg/g cellulose, late hydrolysis (day 7)) was “greater than 1”.

With `O=C1NC(=O)C(=NO)C(=O)N1` [violuric acid], the “nitrogen-containing compound effect(+GH61)” value under setting [3] was “very slightly impacted”. Also, under setting [4], the GH61 effect result was “greater than 1”.
